Experimental data reported in the BET-seq Pho4 binding data (Le et al. 2018).
Some of the results follow. Values were computed here from the reads of four pooled replicates and scatter widely.

molecular target: T1, Pho4 (S. cerevisiae) (UniProt P07270); test: relative binding free energy (BET-seq); higher = weaker binding; conditions: reference: library average
T1 sequence: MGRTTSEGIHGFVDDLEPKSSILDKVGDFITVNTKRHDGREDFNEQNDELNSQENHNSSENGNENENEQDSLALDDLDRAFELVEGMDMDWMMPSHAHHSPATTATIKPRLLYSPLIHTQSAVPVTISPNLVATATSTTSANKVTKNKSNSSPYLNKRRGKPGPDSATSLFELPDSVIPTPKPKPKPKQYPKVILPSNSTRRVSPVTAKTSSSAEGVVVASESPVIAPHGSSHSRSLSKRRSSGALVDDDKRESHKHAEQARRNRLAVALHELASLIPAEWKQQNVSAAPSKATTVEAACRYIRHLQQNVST

Sequence	relative binding free energy
GATATCACGTGTTTAG	0.15 kcal/mol
CAGAGCACGTGTGGAG	0.06 kcal/mol
TGATTCACGTGTAGGA	0.28 kcal/mol
CTGCTCACGTGTGGGT	0.11 kcal/mol
TGAGCCACGTGTTTTA	-0.01 kcal/mol
AAGCGCACGTGGGTGG	-0.33 kcal/mol
GGTCTCACGTGTACTT	0.35 kcal/mol
ATGGGCACGTGTGCGC	-0.1 kcal/mol
GGCGGCACGTGTGCAT	0.12 kcal/mol
ATGGTCACGTGAGGTC	0.3 kcal/mol
ATATTCACGTGTCGTG	0.3 kcal/mol
ACTGACACGTGGGGGA	0 kcal/mol
TTCTTCACGTGTCTGG	0.22 kcal/mol
GTGTGCACGTGGCTGC	0 kcal/mol
CTTTGCACGTGAAATG	0.14 kcal/mol
TCTGTCACGTGGGGTG	0.02 kcal/mol
TGTGGCACGTGGCTTA	-0.12 kcal/mol
TTGTACACGTGGTCGG	-0.14 kcal/mol
TAGTACACGTGATGGT	0.15 kcal/mol
TGTCTCACGTGCTCGG	0.31 kcal/mol
CATTTCACGTGTCTGG	0.35 kcal/mol
AATAGCACGTGAGAGG	0.13 kcal/mol
TCGTGCACGTGGTGTA	-0.19 kcal/mol
TTATTCACGTGTGGGG	0.21 kcal/mol
TGCGTCACGTGAGTGG	0.31 kcal/mol
GGTTCCACGTGTGAGT	0.15 kcal/mol

Sequence	relative binding free energy
TATGTCACGTGGTGGG	0.06 kcal/mol
CGCTGCACGTGTGGGT	-0.01 kcal/mol
TTGGACACGTGAGGGG	0.28 kcal/mol
CAATGCACGTGTAGTG	0.19 kcal/mol
GATTACACGTGGTAAG	0.08 kcal/mol
AAAATCACGTGAGGTG	0.3 kcal/mol
AGTCGCACGTGTAGGA	-0.03 kcal/mol
CGTTTCACGTGTTTTC	0.3 kcal/mol
ATGATCACGTGTTGTC	0.16 kcal/mol
TCTGGCACGTGGACGT	-0.1 kcal/mol
CGTGTCACGTGAGTCT	0.36 kcal/mol
TGGAGCACGTGGTTTT	0 kcal/mol
TTTTACACGTGGGAAC	0.12 kcal/mol
AATTGCACGTGTGTCA	0.08 kcal/mol
GAAAACACGTGAGGTG	0.4 kcal/mol
TTAGGCACGTGGTAAA	-0.11 kcal/mol
TGTGCCACGTGGTGTA	-0.31 kcal/mol
TTTAACACGTGTTTAA	-0.01 kcal/mol
TGGTTCACGTGGTCGT	0.23 kcal/mol
TAGTTCACGTGTAGCT	0.21 kcal/mol
TGGAGCACGTGGGGCT	-0.21 kcal/mol
TTTAGCACGTGTCGGT	0 kcal/mol
GGGGACACGTGGGGCA	-0.04 kcal/mol
GTTGACACGTGTGTAC	0.14 kcal/mol
TAGTTCACGTGGGATG	0.19 kcal/mol
GGGTTCACGTGCCTGG	0.23 kcal/mol

Sequence	relative binding free energy
GTCGACACGTGGGGTG	-0.16 kcal/mol
TATTTCACGTGGGTGC	0.12 kcal/mol
TCGGTCACGTGAGTCG	0.48 kcal/mol
AAAATCACGTGGTGAG	0.1 kcal/mol
GTCGTCACGTGTCTGT	0.17 kcal/mol
GTGAGCACGTGTTGGC	-0.28 kcal/mol
AGAGACACGTGGTTTA	-0.07 kcal/mol
AGCTGCACGTGTATGG	0.02 kcal/mol
TGGAACACGTGAAGTT	0.24 kcal/mol
GTGAGCACGTGACTGG	0.07 kcal/mol
GTTTGCACGTGGGAAA	0.11 kcal/mol
TGTGTCACGTGTTTAC	0.11 kcal/mol
CGCGGCACGTGTAGGA	-0.03 kcal/mol
ATGAGCACGTGTGCTG	-0.1 kcal/mol
TGAGTCACGTGAGCAG	0.25 kcal/mol
TCGGACACGTGTCGGT	0.04 kcal/mol
TATTCCACGTGTTGTA	0.06 kcal/mol
AGGAACACGTGTGAAG	0.24 kcal/mol
TTAGTCACGTGTTGGA	0.07 kcal/mol
ATAACCACGTGGGTGT	-0.24 kcal/mol
GGTATCACGTGTGTCT	0.24 kcal/mol
GGTGACACGTGTAGGT	0.18 kcal/mol
GTTCGCACGTGGGTGG	-0.07 kcal/mol
TATTGCACGTGTTGTA	-0.01 kcal/mol
AAGGGCACGTGGAGCT	-0.05 kcal/mol
GACGGCACGTGGTTGT	-0.18 kcal/mol

Sequence	relative binding free energy
GAGGGCACGTGGTAAG	-0.08 kcal/mol
TAAGGCACGTGGTGTC	-0.18 kcal/mol
GGTATCACGTGGGTCT	0.1 kcal/mol
GTAGCCACGTGGTTAT	-0.09 kcal/mol
GAGGTCACGTGGTTCG	0.2 kcal/mol
TTTAACACGTGGCCGG	0.02 kcal/mol
TAGAACACGTGGCGGG	-0.18 kcal/mol
TAAGTCACGTGGCGTT	0.13 kcal/mol
GGCTACACGTGTTGTA	0.27 kcal/mol
TTAAGCACGTGAGTTG	0.19 kcal/mol
CTTAGCACGTGGGTGG	-0.17 kcal/mol
GATTGCACGTGTGGGA	0.21 kcal/mol
TGGTTCACGTGATCGC	0.53 kcal/mol
TCCGTCACGTGAGGTT	0.28 kcal/mol
CGGGACACGTGTGCGT	-0.12 kcal/mol
TGGTTCACGTGTTTGA	0.23 kcal/mol
CGCTGCACGTGTGGGG	0.02 kcal/mol
CTTGGCACGTGGCGGA	-0.28 kcal/mol
ATTATCACGTGTTATC	0.19 kcal/mol
ATGAGCACGTGGGGGT	-0.14 kcal/mol
TACATCACGTGAGTTG	0.39 kcal/mol
GGTACCACGTGTGTGT	0 kcal/mol
GTGACCACGTGGGGCG	-0.2 kcal/mol
TTCGCCACGTGTTGTT	-0.14 kcal/mol
ATTGACACGTGGGTAG	-0.26 kcal/mol
GAGTGCACGTGTTACT	0.12 kcal/mol

Sequence	relative binding free energy
GGAAGCACGTGGCTAG	-0.06 kcal/mol
TTTGTCACGTGTTAGC	0.09 kcal/mol
TAATTCACGTGTTCAT	0.13 kcal/mol
CTGTTCACGTGATTTT	0.35 kcal/mol
CGTGACACGTGTGTGA	-0.04 kcal/mol
AAATGCACGTGTAGTA	-0.01 kcal/mol
TTTGGCACGTGGGTTT	-0.08 kcal/mol
GATTACACGTGCGGTT	0.15 kcal/mol
TGGTTCACGTGCTGTT	0.2 kcal/mol
ATGGTCACGTGCCTTG	-0.02 kcal/mol
ATCCGCACGTGGGGGG	-0.38 kcal/mol
AGGTCCACGTGTGTGT	0.08 kcal/mol
TTCTGCACGTGTGGTG	0.06 kcal/mol
ATTACCACGTGTAGGG	-0.05 kcal/mol
GTCGGCACGTGTGGCA	-0.02 kcal/mol
GCTAGCACGTGGTCGG	-0.23 kcal/mol
GTGTTCACGTGTGTTC	0.38 kcal/mol
GTAGGCACGTGTTTCG	-0.14 kcal/mol
CTGTACACGTGGCTGG	-0.06 kcal/mol
TCAATCACGTGGAGTT	0.15 kcal/mol
TCTCGCACGTGGTGGG	-0.22 kcal/mol
CGTCTCACGTGGTAGG	0.07 kcal/mol
AGTGGCACGTGTGGTT	-0.03 kcal/mol
CGTTTCACGTGTGGGG	0.32 kcal/mol
TGTGACACGTGGTGTA	-0.06 kcal/mol
GTGGTCACGTGAATAT	0.26 kcal/mol

Sequence	relative binding free energy
ATGTACACGTGGTGTA	-0.01 kcal/mol
GTTGTCACGTGGCCGG	0.05 kcal/mol
AGATACACGTGATGTT	0.15 kcal/mol
GATTTCACGTGTGAAT	0.25 kcal/mol
AAAGACACGTGGTGTT	0.03 kcal/mol
TATTCCACGTGTTTTT	0.11 kcal/mol
AGTATCACGTGTCAGT	0.07 kcal/mol
TAGGGCACGTGTGCAG	-0.23 kcal/mol
GATTTCACGTGCGTGG	0.24 kcal/mol
GGTGTCACGTGGTTTC	0.11 kcal/mol
ATTTCCACGTGTGTGA	0.13 kcal/mol
TGATTCACGTGAGGTC	0.31 kcal/mol
GTGTCCACGTGTAGTG	0.1 kcal/mol
TGCTTCACGTGGAAGT	0.33 kcal/mol
GCTGCCACGTGATGTG	0.24 kcal/mol
AGGTGCACGTGTAATT	0.11 kcal/mol
AGTGTCACGTGGTTGA	0.01 kcal/mol
AGGTGCACGTGGGGAG	-0.21 kcal/mol
TGATACACGTGGGAAT	-0.05 kcal/mol
GGTGACACGTGTTGTA	0 kcal/mol
TTGCGCACGTGGTGGG	-0.19 kcal/mol
GTCTACACGTGTGCTG	0.27 kcal/mol
GAATACACGTGTGGCG	0.24 kcal/mol
GTGAACACGTGTTGCT	0.04 kcal/mol
TTGGCCACGTGTGATG	-0.01 kcal/mol
ATTCACACGTGTGAGG	0.12 kcal/mol

Sequence	relative binding free energy
ATTATCACGTGGTAGA	0.1 kcal/mol
TGCATCACGTGATAGG	0.08 kcal/mol
ATAGTCACGTGTATGC	0.13 kcal/mol
TGTTGCACGTGTGCGA	0.12 kcal/mol
TAATTCACGTGTAAAG	0.36 kcal/mol
CGGGCCACGTGTTGTT	-0.02 kcal/mol
CGTCGCACGTGGTGGG	-0.18 kcal/mol
TGGCTCACGTGGTTGC	0.13 kcal/mol
TACATCACGTGTTATG	0.11 kcal/mol
CTTGCCACGTGGGAGG	-0.17 kcal/mol
GTTGTCACGTGCTTTG	0.15 kcal/mol
ATAAACACGTGGAGGT	0.06 kcal/mol
TTAGGCACGTGTCCTG	-0.17 kcal/mol
GTTTACACGTGTTATA	0.18 kcal/mol
TATAGCACGTGTACGT	0.02 kcal/mol
TTGATCACGTGGTTGA	0.13 kcal/mol
TGGGGCACGTGCGGAA	-0.19 kcal/mol
TATTTCACGTGTTTGA	0.22 kcal/mol
TATCGCACGTGTACGG	0.05 kcal/mol
CGGAGCACGTGTTAGG	-0.12 kcal/mol
AGGATCACGTGGGACT	0.15 kcal/mol
GGAGTCACGTGGCTTA	0.21 kcal/mol
TGGATCACGTGGAGTC	0.23 kcal/mol
TTCTTCACGTGAGAGG	0.61 kcal/mol
TAACGCACGTGAAGGG	0.21 kcal/mol
TTGGGCACGTGCTATA	-0.16 kcal/mol

Sequence	relative binding free energy
GTGCTCACGTGAGAGT	0.19 kcal/mol
GGGAGCACGTGGCATG	-0.31 kcal/mol
GTAATCACGTGAAGGT	0.32 kcal/mol
AAAGTCACGTGTAGGG	0.07 kcal/mol
TGGGCCACGTGTTGTA	0.01 kcal/mol
CTTGACACGTGGGTCG	-0.05 kcal/mol
GAGCGCACGTGCTGTG	-0.01 kcal/mol
CAATTCACGTGGAGTG	0.26 kcal/mol
ATGATCACGTGACGGT	0.33 kcal/mol
GGAGGCACGTGCGGTC	-0.17 kcal/mol
TGGTGCACGTGCGGAT	0.01 kcal/mol
GAGTGCACGTGGTCGA	-0.06 kcal/mol
ATGGGCACGTGTCCGT	-0.02 kcal/mol
AGCGACACGTGGGTGA	-0.2 kcal/mol
ATAAGCACGTGAAGTG	0.18 kcal/mol
TTTAACACGTGAGGTT	0.17 kcal/mol
GTGTGCACGTGATTGC	-0.11 kcal/mol
TGGAGCACGTGTTTGT	0.02 kcal/mol
AGGAGCACGTGTAGGT	-0.05 kcal/mol
AGTATCACGTGGATAA	0.17 kcal/mol
GGCAGCACGTGGTGGG	-0.06 kcal/mol
TCATTCACGTGGGTTA	0.09 kcal/mol
TGAAACACGTGAGTGG	0.3 kcal/mol
GGCGTCACGTGGGTTA	0.04 kcal/mol
TGGTACACGTGGTCTG	-0.07 kcal/mol
TGAGTCACGTGTGGAA	0.2 kcal/mol

Sequence	relative binding free energy
GGTCTCACGTGGTCTG	0.17 kcal/mol
TAATGCACGTGGGGTC	-0.27 kcal/mol
AACGTCACGTGGATTG	0.17 kcal/mol
TGGTCCACGTGATTAG	0.09 kcal/mol
GGAGCCACGTGGTGTG	-0.1 kcal/mol
CGTGTCACGTGCTTTA	0 kcal/mol
TAGAGCACGTGTAGAG	-0.1 kcal/mol
TAGCTCACGTGGGATG	0.15 kcal/mol
TAGGCCACGTGAGTGG	0.13 kcal/mol
TATTTCACGTGGCGGT	0.29 kcal/mol
GTTCGCACGTGGATTA	0.2 kcal/mol
AGGATCACGTGTTGGC	0.25 kcal/mol
TGTGGCACGTGGAATT	0.06 kcal/mol
ATGGTCACGTGCGGAG	0.04 kcal/mol
GTAAGCACGTGCGGGA	-0.08 kcal/mol
GGAATCACGTGATAGT	0.22 kcal/mol
AACAGCACGTGTGTGT	-0.2 kcal/mol
AGGAGCACGTGTTGCG	-0.06 kcal/mol
TAAGTCACGTGGTGCA	-0.04 kcal/mol
ATGGTCACGTGGTAAG	0.08 kcal/mol
CTGGTCACGTGGAGCG	0.03 kcal/mol
GTCTGCACGTGACTGG	0.36 kcal/mol
